Data from the supplement of paper PMC7826260.
The list shows a part of the results. Each Rep nickase domain was tested in vitro on the same pool of single strands (3 µM enzyme, 1 h, 37 °C); shown is the middle of each 90-letter strand. A value is the log2 ratio of uncut reads to the pool without enzyme; more negative means more cut, near 0 not cut, and no call is made. The scaling is to total reads; values above 0 arise when much of the pool is cut.

Key:
Assay in all cases: uncleaved DNA left, log2 of reads against the no-enzyme library (log2 ratio); higher = less cleavage (more negative = more Rep cleavage of the k-mer); sequences stand for … in CTCGTCCG…ACCGGAGA
[1] = system: T1, Rep nickase domain of Muscovy duck circovirus
T1 sequence (Rep 1-111, printed without the tag): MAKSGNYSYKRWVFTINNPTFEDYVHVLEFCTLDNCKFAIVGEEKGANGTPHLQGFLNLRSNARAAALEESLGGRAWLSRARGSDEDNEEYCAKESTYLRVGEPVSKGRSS
Method: (§1)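 A pool of 90-nt single-stranded DNAs with seven random bases just before the constant AC of the nick site (name = the seven bases) was cut by 3 µM recombinant His6-SUMO-tagged Rep nickase domain (300 nM DNA, 50 mM HEPES pH 8.0, 50 mM NaCl, 1 mM MnCl2, 1 h, 37 °C, three replicates). Uncut DNA was amplified and sequenced.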

[2] = system: T2, Rep nickase domain of banana bunchy top virus
T2 sequence (Rep 1-94, printed without the tag): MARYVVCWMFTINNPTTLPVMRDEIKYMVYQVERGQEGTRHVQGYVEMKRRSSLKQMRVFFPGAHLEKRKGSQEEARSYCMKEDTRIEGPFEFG
Method: as §1

[3] = system: T3, Rep nickase domain of cabbage leaf curl virus
T3 sequence (Rep 1-116, printed without the tag): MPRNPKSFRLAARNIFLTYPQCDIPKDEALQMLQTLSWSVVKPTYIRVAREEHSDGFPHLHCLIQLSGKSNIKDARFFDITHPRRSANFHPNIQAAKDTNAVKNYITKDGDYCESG
Method: as §1

[4] = system: T4, Rep nickase domain of chickpea chlorotic dwarf virus
T4 sequence (Rep 1-124, printed without the tag): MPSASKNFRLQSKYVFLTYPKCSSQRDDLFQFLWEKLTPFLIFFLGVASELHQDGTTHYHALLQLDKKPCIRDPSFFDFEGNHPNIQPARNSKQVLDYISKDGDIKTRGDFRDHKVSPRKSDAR
Method: as §1

[5] = system: T5, Rep nickase domain of faba bean necrotic yellows virus
T5 sequence (Rep 1-98, printed without the tag): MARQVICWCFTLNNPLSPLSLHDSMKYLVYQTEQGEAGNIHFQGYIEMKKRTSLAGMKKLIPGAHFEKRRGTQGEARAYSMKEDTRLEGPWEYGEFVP
Method: as §1

[6] = system: T6, Rep nickase domain of maize striate mosaic virus
T6 sequence (Rep 1-117, printed without the tag): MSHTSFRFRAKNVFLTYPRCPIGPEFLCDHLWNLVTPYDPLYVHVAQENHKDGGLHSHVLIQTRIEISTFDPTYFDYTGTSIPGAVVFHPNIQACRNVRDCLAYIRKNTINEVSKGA
Method: as §1

[7] = system: T7, Rep nickase domain of porcine circovirus 2
T7 sequence (Rep 2-116, printed without the tag): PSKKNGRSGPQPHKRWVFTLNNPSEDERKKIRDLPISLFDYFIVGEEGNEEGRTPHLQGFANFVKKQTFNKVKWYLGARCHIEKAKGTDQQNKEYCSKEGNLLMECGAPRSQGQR
Method: as §1

[8] = system: T8, Rep nickase domain of tomato yellow leaf curl virus
T8 sequence (Rep 1-136, printed without the tag): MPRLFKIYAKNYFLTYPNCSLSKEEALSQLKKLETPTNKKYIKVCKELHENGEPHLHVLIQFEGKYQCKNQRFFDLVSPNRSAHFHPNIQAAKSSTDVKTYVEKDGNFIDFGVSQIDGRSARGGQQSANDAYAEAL
Method: as §1

[9] = system: T9, Rep nickase domain of wheat dwarf virus
T9 sequence (Rep 1-137, printed without the tag): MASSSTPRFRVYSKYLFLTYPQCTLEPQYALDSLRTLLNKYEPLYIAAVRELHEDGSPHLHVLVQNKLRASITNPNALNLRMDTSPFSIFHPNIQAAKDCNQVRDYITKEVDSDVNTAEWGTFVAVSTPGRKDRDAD
Method: as §1

Row | Sequence | uncleaved DNA left (log2) [1] | uncleaved DNA left (log2) [2] | uncleaved DNA left (log2) [3] | uncleaved DNA left (log2) [4] | uncleaved DNA left (log2) [5] | uncleaved DNA left (log2) [6] | uncleaved DNA left (log2) [7] | uncleaved DNA left (log2) [8] | uncleaved DNA left (log2) [9]
1 | TTTGTAA | 0.123 | 0.108 | 0.142 | -0.165 | 0.0508 | 0.05 | 0.149 | 0.111 | 0.0337
2 | GTGCGTA | 0.0294 | 0.161 | -0.0683 | 0.202 | -0.109 | -0.333 | 0.112 | 0.0625 | 0.0171
3 | AGTAAGT | 0.08 | -0.0113 | 0.133 | -0.289 | -0.0272 | -0.726 | -3.04 | 0.0381 | 0.0746
4 | CTTCCCC | -0.3 | -0.223 | 0.0605 | -0.431 | -0.233 | -0.387 | -1.97 | -0.0277 | -0.0796
5 | GTCGAGG | 0.164 | 0.291 | 0.507 | 1.14 | 0.21 | 1.95 | 0.229 | 0.214 | 0.237
6 | GGCCTAG | 0.157 | 0.191 | 0.234 | 0.546 | 0.142 | 0.525 | 0.174 | 0.121 | 0.198
7 | TAGTAAT | -3.47 | -3.41 | -2.73 | -2.59 | -3.12 | -0.0209 | -4.13 | 0.123 | -0.81
8 | CTAAGGG | 0.0118 | -0.0353 | -0.219 | -0.0282 | 0.0833 | -0.694 | 0.182 | 0.00584 | -0.0026
9 | TTCACGG | -0.157 | -0.0305 | 0.499 | 1.53 | -0.106 | 2.11 | -0.00988 | -0.135 | 0.0147
10 | CGTGGGT | 0.00175 | 0.0699 | 0.157 | 0.616 | -0.0741 | 0.728 | 0.146 | -0.0591 | 0.0992
11 | GTCCTTT | 0.133 | 0.0572 | 0.313 | 0.502 | 0.128 | 1.66 | 0.00595 | 0.0597 | 0.0677
12 | TTTGTTG | 0.0735 | -0.0565 | -0.688 | -0.799 | 0.00529 | -1.26 | 0.0725 | 0.000765 | -0.198
13 | GCCCCCT | -0.0833 | 0.0155 | 0.0199 | -0.722 | -0.0244 | 0.113 | -0.269 | -0.0581 | -0.00835
14 | CCACACC | -0.0197 | -0.0717 | -0.0205 | -0.648 | -0.14 | -0.583 | -0.188 | -0.243 | -0.0594
15 | CATACAT | 0.0182 | -0.309 | 0.248 | -0.233 | 0.0181 | 0.111 | -0.119 | 0.0244 | 0.0911
16 | GAATACG | -0.00243 | -0.101 | -0.804 | -0.354 | -0.0738 | -0.904 | 0.157 | 0.0228 | -0.162
17 | GTGTTTA | -0.0341 | 0.0937 | 0.317 | 0.743 | -0.0159 | 1.74 | 0.123 | 0.0617 | -0.00112
18 | GCTAACA | -0.0875 | 0.113 | -0.201 | -0.872 | -0.164 | 0.147 | -0.0504 | 0.102 | 0.0752
19 | TATAAAC | 0.044 | -0.0114 | 0.148 | -0.252 | 0.0332 | -0.31 | 0.121 | 0.0841 | 0.0849
20 | CTTTGAG | -0.0268 | 0.0579 | -0.833 | 0.262 | 0.0462 | -0.685 | 0.178 | 0.167 | -0.121
21 | CACTAGC | 0.00656 | -0.106 | -0.433 | -0.633 | 0.09 | -1.08 | 0.0634 | 0.0555 | -0.00348
22 | GGGATGC | 0.0679 | 0.127 | 0.741 | 1.93 | 0.00121 | 2.16 | 0.178 | 0.0347 | 0.0511
23 | TGCCGCA | -0.0538 | -0.219 | -0.245 | -0.5 | -0.0447 | -0.741 | -0.0342 | 0.0177 | -0.0723
24 | TACTCCG | -0.0164 | -0.132 | -1.02 | -0.798 | -0.0155 | -1.03 | -0.111 | -0.213 | -0.192
25 | GTTAAAA | 0.00996 | 0.13 | 0.313 | 0.844 | 0.00289 | 1.79 | 0.0601 | -0.0413 | 0.0422
26 | AGCTCCT | -0.0242 | 0.00252 | 0.098 | -0.731 | -0.102 | 0.584 | -1.43 | 0.0776 | 0.0889
27 | GATTAAT | -2.86 | -2.88 | 0.244 | -0.0525 | -0.25 | 1.24 | -2.96 | 0.0695 | 0.0318
28 | CGAGTTT | 0.00151 | -0.0443 | -0.068 | -1.35 | -0.0783 | -0.129 | -0.257 | 0.0481 | -0.106
29 | CGTGTCA | -0.0875 | 0.0553 | 0.316 | 0.272 | -0.0318 | 0.901 | 0.0158 | 0.082 | 0.135
30 | TGTGCCA | 0.103 | 0.0817 | 0.257 | 0.604 | 0.0834 | 1.09 | 0.179 | 0.15 | 0.0978
